# Laboratory results published in the supplement of paper PMC9446081.
# The campaign covered roughly 39,000 compounds. About 220 (0.56%) showed activity. This is one part of the list.
# System: Escherichia coli K-12 BW25113
# Assay: relative growth (OD600 normalised to plate interquartile mean) (fraction); higher = less growth inhibition, active = 0.2 or less
# Details: 50 µM; LB; incubation time: overnight (16-24 h)
# 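Further: static incubation at 37 °C against the wild-type strain, values averaged over two biological replicates.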
row,Compound,relative growth
1,C=CCOC(=O)[C@@H]1[C@H]2C(=O)O[C@H](c3ccccc3)[C@H](c3ccccc3)N2[C@H](c2ccc(OCCOC(=O)[C@H]3C[C@H]4C(=O)N[C@@H](CCCC[N+](C)(C)C)C(=O)N4[C@H]3c3ccc(O)cc3)cc2)[C@@]12C(=O)Nc1ccc(I)cc12,inactive: 1.06
2,CO[C@@H]1CN(C)C(=O)c2cc(NC(=O)C3CCOCC3)ccc2OC[C@@H](C)N(C(=O)C2CCOCC2)C[C@H]1C,inactive: 1.01
3,CCOC(=O)Nc1nc2ccccc2[nH]1,inactive: 0.989
4,CCCC(=O)Nc1ccc2c(c1)C(=O)N(C)C[C@H](OC)[C@@H](C)CN(S(=O)(=O)c1cn(C)cn1)[C@@H](C)CO2,inactive: 0.97
5,O=C(C[C@H]1C[C@@H]2c3cc(NC(=O)c4ccc5c(c4)OCO5)ccc3O[C@@H]2[C@H](CO)O1)NCc1ccc(Oc2ccccc2)cc1,inactive: 1
6,O=C(C[C@@H]1C[C@H]2c3cc(NS(=O)(=O)c4ccc(F)cc4)ccc3O[C@H]2[C@@H](CO)O1)N1CCCCC1,inactive: 1.02
7,Cc1noc(C)c1S(=O)(=O)Nc1ccc2c(c1)C(=O)N([C@@H](C)CO)C[C@H](C)[C@@H](CN(C)Cc1ccc(C(=O)O)cc1)O2,inactive: 1
8,C[C@H](CO)N1C[C@H](C)[C@H](CN(C)Cc2ccc(Cl)c(Cl)c2)OCc2ccccc2-c2c(n(C)c3ccccc23)C1=O,inactive: 1.01
9,C[C@H](CO)N1C[C@H](C)[C@H](CN(C)Cc2ccccc2C(F)(F)F)OCc2ccccc2-c2ccccc2C1=O,inactive: 0.974
10,C[C@@H]1CN([C@@H](C)CO)C(=O)c2cccc(NC(=O)c3nc4ccccc4s3)c2O[C@H]1CN(C)CC1CCCCC1,inactive: 0.912
11,COc1ccccc1NC(=O)Nc1ccc2c(c1)C(=O)N(C)C[C@@H](OC)[C@H](C)CN(Cc1ccccc1Cl)[C@H](C)CO2,inactive: 1.04
12,C[C@@H]1CN([C@H](C)CO)C(=O)c2cc(NC(=O)C3CCCCC3)ccc2O[C@@H](C)CCCCO[C@H]1CN(C)S(=O)(=O)c1cccs1,inactive: 0.977
13,C[C@H]1CN([C@@H](C)CO)C(=O)c2cc(C#Cc3ccc(F)cc3)cnc2O[C@H]1CN(C)CC1CCOCC1,inactive: 1.01
14,C[C@@H]1CN([C@H](C)CO)C(=O)c2cc(NC(=O)CCCN(C)C)ccc2O[C@@H]1CN(C)S(=O)(=O)c1ccc(Cl)cc1,inactive: 1.01
15,NC(=O)c1ccc(CN2CCOCC2)cc1,inactive: 0.992
16,C[C@@H]1CCCCO[C@H](CN(C)CC2CC2)[C@@H](C)CN([C@H](C)CO)C(=O)c2cc(NS(=O)(=O)c3cn(C)cn3)ccc2O1,inactive: 1.02
